Data reported in PMC12820563, “FoxP3 forms a head-to-head dimer in vivo and stabilizes its multimerization on adjacent microsatellites”.
Some of the results follow.

Target: T1, MBP-FoxP1dN (Mus musculus, UniProt P58462 326-579)
T1 sequence: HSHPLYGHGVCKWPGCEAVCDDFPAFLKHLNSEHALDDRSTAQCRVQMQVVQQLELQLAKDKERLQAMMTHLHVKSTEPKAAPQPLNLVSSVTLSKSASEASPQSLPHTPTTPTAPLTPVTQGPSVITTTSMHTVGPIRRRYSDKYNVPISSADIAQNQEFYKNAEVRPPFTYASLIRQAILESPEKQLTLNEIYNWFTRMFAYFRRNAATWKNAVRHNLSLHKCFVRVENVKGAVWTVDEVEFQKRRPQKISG
Assay: PD-seq (MBP pull-down with sequencing); 20 mM Tris-HCl pH 7.5, 100 mM NaCl, 1.5 mM MgCl2, 0.4 uM protein, 0.1 uM dsDNA library, 30 min, room temperature, amylose pull-down; high values mean tight binding
Conditions: protein: recombinant; tags: His6-MBP; chain copies: 2; dsDNA, one strand shown
Procedure, shortened: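 A fragment of mouse FoxP3 or FoxP1 without its N-terminus, carrying a His6-MBP tag and produced in E. coli, was combined at 0.4 µM with a 0.1 µM degenerate double-stranded DNA library filled in with Klenow. The mixture sat for 30 min at room temperature in Tris pH 7.5 buffer containing NaCl and MgCl2. Protein–DNA complexes were captured on amylose resin, washed three times, and the DNA was freed with proteinase K, barcoded by PCR and sequenced on Illumina. Binding is expressed as reads-per-million enrichment of pull-down over input, with replicates pooled.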

| Sequence | binding signal |
| --- | --- |
| GATGATTGTTCTCCCAGCTGATGAATTAGTGATGTCGAGTAAACAAATTTTCCTAATCTTTCTGTTCAAGCGCCATCTAC | 1.25 RPM ratio (pull-down/input) |
| GATGATTGTTCTCCCAGCTGATGAATTTTCCCATTCGAGTAAACAAATTTTCCTAATCTTTCTGTTCAAGCGCCATCTAC | 0.937 RPM ratio (pull-down/input) |
| GATGATTGTTCTCCCAGCTGATGAATTACACTGATCGAGTAAACAAATTTTCCTAATCTTTCTGTTCAAGCGCCATCTAC | 1.12 RPM ratio (pull-down/input) |
| GATGATTGTTCTCCCAGCTGATGAATTATGCAGTTCGAGTAAACAAATTTTCCTAATCTTTCTGTTCAAGCGCCATCTAC | 1.01 RPM ratio (pull-down/input) |
| GATGATTGTTCTCCCAGCTGATGAATTGAGAGCCTCGAGTAAACAAATTTTCCTAATCTTTCTGTTCAAGCGCCATCTAC | 0.811 RPM ratio (pull-down/input) |
| GATGATTGTTCTCCCAGCTGATGAATTAGCTTTATCGAGTAAACAAATTTTCCTAATCTTTCTGTTCAAGCGCCATCTAC | 0.973 RPM ratio (pull-down/input) |
| GATGATTGTTCTCCCAGCTGATGAATTAAGTGCTTCGAGTAAACAAATTTTCCTAATCTTTCTGTTCAAGCGCCATCTAC | 0.861 RPM ratio (pull-down/input) |
| GATGATTGTTCTCCCAGCTGATGAATTTATCGGATCGAGTAAACAAATTTTCCTAATCTTTCTGTTCAAGCGCCATCTAC | 1.02 RPM ratio (pull-down/input) |
| GATGATTGTTCTCCCAGCTGATGAATTGCGCAGATCGAGTAAACAAATTTTCCTAATCTTTCTGTTCAAGCGCCATCTAC | 1.06 RPM ratio (pull-down/input) |
| GATGATTGTTCTCCCAGCTGATGAATTAACTGTATCGAGTAAACAAATTTTCCTAATCTTTCTGTTCAAGCGCCATCTAC | 1.14 RPM ratio (pull-down/input) |
| GATGATTGTTCTCCCAGCTGATGAATTACCAACCTCGAGTAAACAAATTTTCCTAATCTTTCTGTTCAAGCGCCATCTAC | 1.04 RPM ratio (pull-down/input) |
| GATGATTGTTCTCCCAGCTGATGAATTAAGAGTTTCGAGTAAACAAATTTTCCTAATCTTTCTGTTCAAGCGCCATCTAC | 0.931 RPM ratio (pull-down/input) |
| GATGATTGTTCTCCCAGCTGATGAATTGCCGTACTCGAGTAAACAAATTTTCCTAATCTTTCTGTTCAAGCGCCATCTAC | 0.923 RPM ratio (pull-down/input) |
| GATGATTGTTCTCCCAGCTGATGAATTCGTGCTTTCGAGTAAACAAATTTTCCTAATCTTTCTGTTCAAGCGCCATCTAC | 1.19 RPM ratio (pull-down/input) |
| GATGATTGTTCTCCCAGCTGATGAATTTATGAGCTCGAGTAAACAAATTTTCCTAATCTTTCTGTTCAAGCGCCATCTAC | 0.98 RPM ratio (pull-down/input) |
| GATGATTGTTCTCCCAGCTGATGAATTCGTGCGATCGAGTAAACAAATTTTCCTAATCTTTCTGTTCAAGCGCCATCTAC | 0.908 RPM ratio (pull-down/input) |

| Sequence | binding signal |
| --- | --- |
| GATGATTGTTCTCCCAGCTGATGAATTCGGAGGTTCGAGTAAACAAATTTTCCTAATCTTTCTGTTCAAGCGCCATCTAC | 0.763 RPM ratio (pull-down/input) |
| GATGATTGTTCTCCCAGCTGATGAATTGCGTCGCTCGAGTAAACAAATTTTCCTAATCTTTCTGTTCAAGCGCCATCTAC | 1.01 RPM ratio (pull-down/input) |
| GATGATTGTTCTCCCAGCTGATGAATTGCCTCTGTCGAGTAAACAAATTTTCCTAATCTTTCTGTTCAAGCGCCATCTAC | 0.913 RPM ratio (pull-down/input) |
| GATGATTGTTCTCCCAGCTGATGAATTCTCGCCTTCGAGTAAACAAATTTTCCTAATCTTTCTGTTCAAGCGCCATCTAC | 0.855 RPM ratio (pull-down/input) |
| GATGATTGTTCTCCCAGCTGATGAATTATCCGTGTCGAGTAAACAAATTTTCCTAATCTTTCTGTTCAAGCGCCATCTAC | 0.975 RPM ratio (pull-down/input) |
| GATGATTGTTCTCCCAGCTGATGAATTTCGGATATCGAGTAAACAAATTTTCCTAATCTTTCTGTTCAAGCGCCATCTAC | 0.957 RPM ratio (pull-down/input) |
| GATGATTGTTCTCCCAGCTGATGAATTTCAGGAATCGAGTAAACAAATTTTCCTAATCTTTCTGTTCAAGCGCCATCTAC | 0.937 RPM ratio (pull-down/input) |
| GATGATTGTTCTCCCAGCTGATGAATTGGTCTCGTCGAGTAAACAAATTTTCCTAATCTTTCTGTTCAAGCGCCATCTAC | 0.87 RPM ratio (pull-down/input) |
| GATGATTGTTCTCCCAGCTGATGAATTAAGAAACTCGAGTAAACAAATTTTCCTAATCTTTCTGTTCAAGCGCCATCTAC | 0.824 RPM ratio (pull-down/input) |
| GATGATTGTTCTCCCAGCTGATGAATTCACAAAATCGAGTAAACAAATTTTCCTAATCTTTCTGTTCAAGCGCCATCTAC | 1.19 RPM ratio (pull-down/input) |
| GATGATTGTTCTCCCAGCTGATGAATTGAAGGCGTCGAGTAAACAAATTTTCCTAATCTTTCTGTTCAAGCGCCATCTAC | 0.896 RPM ratio (pull-down/input) |
| GATGATTGTTCTCCCAGCTGATGAATTCCTCATGTCGAGTAAACAAATTTTCCTAATCTTTCTGTTCAAGCGCCATCTAC | 0.883 RPM ratio (pull-down/input) |
| GATGATTGTTCTCCCAGCTGATGAATTTACGTTTTCGAGTAAACAAATTTTCCTAATCTTTCTGTTCAAGCGCCATCTAC | 1.56 RPM ratio (pull-down/input) |
| GATGATTGTTCTCCCAGCTGATGAATTAGTAACATCGAGTAAACAAATTTTCCTAATCTTTCTGTTCAAGCGCCATCTAC | 1.45 RPM ratio (pull-down/input) |
| GATGATTGTTCTCCCAGCTGATGAATTACACAGATCGAGTAAACAAATTTTCCTAATCTTTCTGTTCAAGCGCCATCTAC | 1.18 RPM ratio (pull-down/input) |
| GATGATTGTTCTCCCAGCTGATGAATTGATTTCATCGAGTAAACAAATTTTCCTAATCTTTCTGTTCAAGCGCCATCTAC | 1.2 RPM ratio (pull-down/input) |
